Compound in the experiment: CC1Cc2ccccc2N1C(=O)C1CCCN(C1)C(=O)CCl (mixture of isomers) [TRIM25 ligand 11 (diastereomer mixture)]
Nature of the experiment: probe-labelled cysteine peptide fold change vs DMSO (competition) (log2 fold change); higher = less target engagement (more negative = stronger competition). Conditions: THP-1, incubation time: 4 h.

The results in this text go back to the supplement of paper PMC12067093, “Discovery and optimisation of a covalent ligand for TRIM25 and its application to targeted protein ubiquitination” (Chemical Science, 2025).

Targets with the largest changes are over-represented here; the source holds about 21,000 in all.
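Note: competitive chemoproteomic profiling in live THP-1 cells with an iodoacetamide desthiobiotin (IA-DTB) probe, comparing probe-labelled peptide intensities in compound-treated cells against DMSO-treated controls.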

UniProt O00410, sequence (O00410 whole entry, looked up): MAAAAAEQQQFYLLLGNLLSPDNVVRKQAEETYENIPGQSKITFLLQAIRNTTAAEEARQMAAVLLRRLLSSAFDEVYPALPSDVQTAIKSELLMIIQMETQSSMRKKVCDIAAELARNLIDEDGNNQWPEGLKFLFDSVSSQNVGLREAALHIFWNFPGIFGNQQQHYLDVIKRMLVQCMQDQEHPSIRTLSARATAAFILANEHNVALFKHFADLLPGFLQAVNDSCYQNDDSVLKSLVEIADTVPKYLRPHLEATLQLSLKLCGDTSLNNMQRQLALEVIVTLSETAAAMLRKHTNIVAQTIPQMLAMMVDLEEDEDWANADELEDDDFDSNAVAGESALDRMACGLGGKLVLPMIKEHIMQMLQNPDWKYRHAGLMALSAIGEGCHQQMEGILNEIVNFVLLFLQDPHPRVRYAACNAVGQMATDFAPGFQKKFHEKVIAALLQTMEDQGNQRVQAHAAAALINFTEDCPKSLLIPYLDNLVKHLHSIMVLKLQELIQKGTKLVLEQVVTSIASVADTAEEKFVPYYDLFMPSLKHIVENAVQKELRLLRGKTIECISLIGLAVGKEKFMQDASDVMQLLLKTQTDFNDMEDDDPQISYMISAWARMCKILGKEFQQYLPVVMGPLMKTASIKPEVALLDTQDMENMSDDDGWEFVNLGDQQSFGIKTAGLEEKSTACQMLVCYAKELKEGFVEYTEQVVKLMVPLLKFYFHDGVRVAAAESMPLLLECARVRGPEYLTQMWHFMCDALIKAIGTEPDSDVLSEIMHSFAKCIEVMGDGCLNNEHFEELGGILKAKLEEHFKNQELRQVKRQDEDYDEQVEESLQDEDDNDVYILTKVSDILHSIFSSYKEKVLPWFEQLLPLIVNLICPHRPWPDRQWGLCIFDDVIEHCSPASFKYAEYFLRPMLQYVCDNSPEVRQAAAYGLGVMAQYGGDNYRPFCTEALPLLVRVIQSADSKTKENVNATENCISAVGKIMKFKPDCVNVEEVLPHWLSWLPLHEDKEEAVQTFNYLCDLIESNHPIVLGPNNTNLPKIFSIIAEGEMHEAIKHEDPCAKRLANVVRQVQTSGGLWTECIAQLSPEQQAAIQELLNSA

Turning to “IPO5_O00410_986_FKPDCVNVEEVLPHWLSWLPLHEDK (UniProt O00410)”, the “probe-labelled cysteine peptide fold change” value (10 µM) turned out to be 0.215 and the “probe-labelled cysteine peptide fold change” value (50 µM) stood at 0.0732.
